Test results taken from the supplement of paper PMC3334620.
The full ranking holds about 33,000 sequences; the median of “E-score (-0.5 to 0.5)” is about -0.016, and the highest 2% start at about 0.32. The list shows a part of the results.

Each sequence was assayed against T1, Stp1 (UniProt B3LFK1) (assay: PBM E-score (8-mer binding enrichment) (E-score (-0.5 to 0.5)); higher = stronger / more preferred TF binding; most listed sequences are background and not binding sites). Conditions: protein concentration: 200 nM; construct: GST-full length.
T1 sequence: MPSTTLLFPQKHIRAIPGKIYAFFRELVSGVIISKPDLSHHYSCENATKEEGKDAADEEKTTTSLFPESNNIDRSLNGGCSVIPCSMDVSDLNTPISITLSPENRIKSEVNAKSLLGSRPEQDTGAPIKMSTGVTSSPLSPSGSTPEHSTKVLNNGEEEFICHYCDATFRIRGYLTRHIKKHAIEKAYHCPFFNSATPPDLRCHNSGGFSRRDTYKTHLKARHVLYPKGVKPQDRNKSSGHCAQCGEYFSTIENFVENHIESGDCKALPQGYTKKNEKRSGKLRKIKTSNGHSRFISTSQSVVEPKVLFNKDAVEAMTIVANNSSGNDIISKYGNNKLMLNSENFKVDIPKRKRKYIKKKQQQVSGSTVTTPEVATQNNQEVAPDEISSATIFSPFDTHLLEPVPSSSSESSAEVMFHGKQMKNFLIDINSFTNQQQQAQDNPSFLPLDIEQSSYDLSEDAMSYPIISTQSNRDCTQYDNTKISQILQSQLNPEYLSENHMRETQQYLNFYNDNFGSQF
Procedure: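 Universal 'all 10-mer' protein binding microarrays (Agilent AMADID 015681) probed with GST-tagged S. cerevisiae TFs (full-length or DBD) made by in vitro transcription/translation (PURExpress), about 100-200 nM. Bound TF was detected with fluorescent anti-GST. Each ungapped 8-mer (which stands for itself and its reverse complement) is scored by the PBM enrichment score (E-score), a modified Wilcoxon-Mann-Whitney statistic from -0.5 to +0.5, computed with the Universal PBM Analysis Suite. Scale: above 0.35 generally sequence-specific binding.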

Row | Sequence | PBM E-score
1 | GGGGACAA | -0.121
2 | AACTACTG | -0.0275
3 | CACGAGTA | 0.216
4 | ACAACTCA | 0.102
5 | CCAGACGG | -0.0852
6 | CGGTGCGA | -0.109
7 | AATTGGAA | 0.0908
8 | ATTGGAGA | 0.0299
9 | CGATGCCC | 0.0311
10 | TGCCGAAA | 0.141
11 | CCGCTATA | -0.0378
12 | AATAGGAA | 0.0273
13 | AATCACCG | 0.11
14 | AGAGGTTA | -0.101
15 | AGGCTATC | -0.093
16 | AATTCGAT | 0.156
17 | GTACTCAA | 0.00736
18 | ACGTGGGA | -0.165
19 | AAACCGTT | -0.0806
20 | GTAGGCGA | 0.135
21 | AGTATAAG | 0.0872
22 | CGACAGTC | -0.226

Row | Sequence | PBM E-score
23 | CGAGAGTA | -0.0994
24 | AGCAGCTG | -0.12
25 | CGCTGGCC | -0.267
26 | CCAGAGAG | -0.245
27 | GTAGCCAA | -0.0741
28 | AACTCGAT | 0.0342
29 | CTCATTGA | -0.115
30 | AAGACCAC | -0.297
31 | AGGATGGC | 0.14
32 | ACACTCCG | -0.00205
33 | CAGAGTGA | -0.106
34 | CAGTGTGC | -0.0685
35 | ATAAGATA | 0.176
36 | CACAACAC | 0.16
37 | CAGTCCGG | -0.161
38 | ATTGCTCC | -0.002
39 | CCCTTTTC | -0.0962
40 | AGAATCCC | 0.0569
41 | CTCGGGGC | -0.163
42 | CTACGGTC | -0.118
43 | AAATCATT | -0.0682
44 | CTCCATTC | -0.264

Row | Sequence | PBM E-score
45 | CACAGTAC | -0.0949
46 | ACGGGCAT | 0.145
47 | GAACGCTA | -0.153
48 | GCAGGGAC | -0.274
49 | GCTAGAGC | -0.046
50 | GGGCAAAA | 0.142
51 | GTATAGCA | 0.16
52 | CCTTCCAA | -0.12
53 | TACACCTA | 0.00928
54 | CATAGGCG | -0.157
55 | GCATATAC | 0.0783
56 | ACGCGGTA | 0.0505
57 | GTTCAGTA | 0.116
58 | AGGCTGTG | -0.208
59 | ACCTAGCC | -0.186
60 | AACCCGGA | -0.157
61 | ATGCCATC | 0.21
62 | CCGGTGCC | 0.172
63 | AAAGATTT | 0.0306
64 | CATTCGCC | 0.143
65 | CCTGACCG | -0.211
66 | CGTTATCC | -0.068

Row | Sequence | PBM E-score
67 | AACAGACC | 0.0691
68 | CAACTCTG | -0.126
69 | CTCGGATC | -0.0738
70 | CTTCGCGA | -0.0616
71 | ATTAAAGC | 0.0702
72 | CAGCGCTC | -0.109
73 | TCACTCCA | -0.198
74 | CGCGTAAC | 0.0809
75 | CGGTCAGA | -0.195
76 | AGTCCCCA | -0.291
77 | ATCGCCGA | 0.212
78 | TCTTATAA | 0.0601
79 | AAAAGGGT | -0.207
80 | TCGGATAA | 0.0764
81 | ATCAGCCA | -0.126
82 | TACGGGGA | 0.0612
83 | AGGCCATC | -0.122
84 | TCAGGTAA | -0.131
85 | AGCAGTTC | -0.0959
86 | AAATGGAC | 0.204
